According to PubChem BioAssay AID1745847 (National Center for Advancing Translational Sciences (NCATS), 2022):
Screen size: about 2,100 compounds; about 670 (32%) were called active. The inconclusive results got no clear call from the source; some entries with a clear call stand among them for comparison. Calls come from the whole dose curve; as a rule, active = well fitted inhibition curve with a large enough effect; inconclusive = small, poorly fitted or top-dose-only effect; inactive = no such curve, though single readings can be large or run the other way. Where the call is inconclusive, the potency comes from a doubtful curve fit.

assay: CMV-Luciferase Counterscreen for Inhibitors of ATXN expression; details: HEK-293 CMV-luciferase reporter, luminescence, 24 h; series mostly up to 57.5 µM; activity change, negative = inhibition: at the top concentration; note: nearly all actives have a fitted effect of over 55% in size
% is set by controls: 0 for no effect and ±100 for the full control effect; potency is the fitted concentration of half-maximal effect; tags give direction and shape of the fitted curve.

Compound | Potency | activity change, negative = inhibition
C/C(=N\NC(=O)CCCNc1ccc(C)cc1)c1ccccn1 | inconclusive: 10 µM [inhibitor, partial curve, poor fit] | 
O=c1c(O)c(-c2ccccc2)oc2ccccc12 |  | inactive: -28.6% [at 11.4 µM]
O=C(Nc1ccc(OC(F)F)c(Cl)c1)C(c1ccccc1)c1ccccc1 | inconclusive: 25.1 µM [inhibitor, single point] | 
O=C(N/N=C/c1c(O)ccc2ccccc12)c1cccnc1 | inconclusive: 2.82 µM [inhibitor, full curve, poor fit] | 
COC(=O)c1ccc(/C=C2/SC(=S)N(CCCC(=O)Nc3ccccn3)C2=O)cc1 | inconclusive: 31.6 µM [inhibitor, single point] | 
Cc1sc2nc(C3CC3)nc(N3CCN(C(=O)c4ccc(F)cc4)CC3)c2c1C | inconclusive: 12.6 µM [inhibitor, partial curve, poor fit] | 
COc1ccc(NC2=NCC(Cc3ccc(Br)cc3)S2)cc1 (centres undefined) | inconclusive: 5.01 µM [inhibitor, single point] | 
C=CCSc1nc2ccccc2n1C(=O)/C=C/c1ccc(OC)c(OC)c1 | inconclusive: 4.47 µM [inhibitor, single point] | 
OC(c1ccccc1)(c1nc(-c2ccc3ccccc3c2)cs1)C(F)(F)F (centres undefined) |  | inactive: 26.4% [at 11.4 µM]
NS(=O)(=O)c1ccc(N2N=C(c3ccccc3)CC2c2cccc(Cl)c2)cc1 (centres undefined) | inconclusive: 31.6 µM [inhibitor, single point] | 
COc1cccc(CC2(CO)CCCN(Cc3[nH]c4ccc(C)cc4c3C)C2)c1 (centres undefined) |  | inactive: -14.8%
O=c1cc(C(F)(F)F)[nH]c2ccc(C(F)(F)F)cc12 | inconclusive: 3.98 µM [inhibitor, partial curve] | 
Nc1c(C(=O)NCCN2CCOCC2)c2nc3ccccc3nc2n1CCc1ccccc1F | inconclusive: 31.6 µM [inhibitor, single point] | 
Cc1ccc(C)c(NC(=O)CCC(=O)N/N=C/c2cc([N+](=O)[O-])ccc2O)c1 | inconclusive: 2.82 µM [inhibitor, partial curve, poor fit] | 
CC(C)(C)c1cc[n+](C2=C([O-])c3ccccc3C(=O)/C2=N\S(=O)(=O)c2cccs2)cc1 | inconclusive: 3.16 µM [inhibitor, partial curve, poor fit] | 
c1ccc(-c2cccc(-c3ccccn3)n2)nc1 |  | inactive: 72.5% [at 11.4 µM]
O=C(NC(=S)NCc1nc2ccccc2[nH]1)c1ccc(F)cc1 |  | inactive: 290% [at 11.4 µM]
CC(=O)Nc1ccc(CNc2nc3cc(-c4ccccc4C)sc3c(=O)n2C)cc1 | inconclusive: 14.1 µM [inhibitor, partial curve, poor fit] | 
N#CC1=C(N)N2C(=C(C#N)C1c1ccc(Br)cc1)Nc1ccccc12 (centres undefined) | active: 0.631 µM | 
O=C(Nc1ccc[n+](CC(=O)c2cccc3ccccc23)c1)c1ccccc1 | inconclusive: 3.16 µM [inhibitor, single point] | 
C/[N+]([O-])=C\c1cccc(OCCN2CCN(c3ncc(C(F)(F)F)cc3Cl)CC2)c1 | inconclusive: 3.98 µM [inhibitor, single point] | 
COc1ccc2c(c1)C(SCC(=O)NCCc1ccc(Cl)cc1)CC(C)(C)O2 (centres undefined) | inconclusive: 5.01 µM [inhibitor, single point] | 

Compound | Potency | activity change, negative = inhibition
COc1ccc2nc(C)cc(SCC(=O)N/N=C/c3ccc(O)cc3O)c2c1 | active: 11.2 µM | 
CCCCCCc1cc2cc(S(=O)(=O)c3ccc(F)c(Cl)c3)c(=O)oc2cc1O | inconclusive: 3.55 µM [inhibitor, single point] | 
CS(=O)(=O)Nc1cccc(NC(=O)c2cccc3c(-c4cccc(C(N)=O)c4)coc23)c1 |  | inactive: -17.1%
C(=C\c1nc(N2CCCC2)c2ccccc2n1)/c1ccccc1 | inconclusive: 3.16 µM [inhibitor, partial curve] | 
CCc1nc2ccc(C(=O)NCCOc3ccc(OC)cc3)cn2c1N(CCC(C)C)CCN(C)C | inconclusive: 7.08 µM [inhibitor, single point] | 
Cn1cccc1/C=N/N1CCN(Cc2ccccc2Cl)CC1 |  | inactive: -18.3%
CCN1CCN(Cc2ccc(NC(=O)c3ccc(C)c(NC(=O)c4nccnc4N)c3)cc2C(F)(F)F)CC1 | inconclusive: 8.91 µM [inhibitor, partial curve, poor fit] | 
O=C(NCC1CC1)c1ccc2c(c1)S(=O)(=O)c1cc(Cl)ccc1C2=O |  | inactive: -10.6% [at 11.4 µM]
CCCC/C(C)=N/NC(=O)c1cn(-c2ccccc2)nc1-c1ccccc1 |  | inactive: -28.6% [at 11.4 µM]
Cc1ccc(N/C(N)=N/c2nc(C)cc(N3CCCCC3)n2)c(C)c1 | inconclusive: 1.78 µM [inhibitor, partial curve, poor fit] | 
Cn1c(-[n+]2c(-c3ccccc3)cc(-c3ccccc3)cc2-c2ccccc2)nc2c([N+](=O)[O-])cccc21 |  | inactive: 0.1% [at 11.4 µM]
CN(C)CCCNc1nc2cc(-c3cccc(Cl)c3)sc2c(=O)n1C |  | inactive: -10.1%
CCOc1ccccc1NC(=O)N1CCC(c2nc3ccccc3[nH]2)CC1 |  | inactive: 28.9% [at 11.4 µM]
C/C(=N\NC(=O)CN(c1ccccc1)S(C)(=O)=O)c1ccccc1O | active: 12.6 µM | 
Cc1nc2c(OCc3ccc(C(F)(F)F)cc3)cccn2c1N(C)C(=O)CCC1CCCC1 | inconclusive: 28.2 µM [inhibitor, single point] | 
CC(C)(C)N(Cc1ccc2c(c1)OCO2)C(=O)/C=C\S(=O)c1ccccc1 (centres undefined) | inconclusive: 15.8 µM [inhibitor, partial curve, poor fit] | 
CCOC(=O)N1CCC(c2cc(=O)n3[nH]c(C)c(-c4ccc(F)cc4)c3n2)CC1 | inconclusive: 39.8 µM [inhibitor, single point] | 
CCOC(=O)c1ccc(N=c2sc(C(=O)OC)cc(=O)n2-c2ccc(C(=O)OCC)cc2)cc1 |  | inactive: -3.07% [at 11.4 µM]
O=C1/C(=C\c2cc(Cl)c(O)c(Cl)c2)SC(=S)N1Cc1ccccc1 | inconclusive: 4.47 µM [inhibitor, full curve, poor fit] | 
Cc1ccc(SC2=C(N(C)C)C(=O)c3ccccc3C2=O)cc1 | inconclusive: 25.1 µM [inhibitor, partial curve, poor fit] | 
COc1ccccc1OCCN1CSC(=S)N(C)C1 | inconclusive: 39.8 µM [inhibitor, single point] | 
CCN(CC)c1ccc(/C=N/NC(=O)c2cccc(S(=O)(=O)N3CCOCC3)c2)c(O)c1 | active: 0.891 µM | 

Compound | Potency | activity change, negative = inhibition
Cc1ccc2[nH]c(=O)c(CN(CCCN(C)C)C(=O)Nc3cccc(Cl)c3)cc2c1 |  | inactive: -29.3%
CCOc1ccc(NCc2cccn2-c2nnc(N3CCC(C(=O)NCCCN4CC(C)CC(C)C4)CC3)s2)cc1 (centres undefined) |  | inactive: -19.5% [at 11.4 µM]
COc1cc(-c2ccc3sc(-c4ccsc4)c(C#CCO)c3c2)cc(OC)c1OC | inconclusive: 15.8 µM [inhibitor, partial curve, poor fit] | 
Cc1ccc(C)c(CN2CCC(CNC(=O)Nc3ccc(C)c(C)c3)CC2)c1 | inconclusive: 28.2 µM [inhibitor, single point] | 
N#Cc1c(Oc2ccc3ccccc3c2)sc(C(=O)c2ccccc2)c1N | active: 14.1 µM | 
O=C(Cc1coc2cc3c(cc12)CCC3)OCC(=O)N1CCCC1=O | active: 15.8 µM | 
O=C(NCC1CCCO1)c1cccc(Oc2ccc([N+](=O)[O-])cc2Cl)c1 (centres undefined) | inconclusive: 3.98 µM [inhibitor, partial curve, poor fit] | 
CC(C)CC(=NNC(=O)c1ccncc1)c1cc(Cl)ccc1O | active: 0.282 µM | 
O=C(CSc1ccc2ccccc2c1)Nc1nc2ccccc2[nH]1 |  | inactive: 78.8% [at 11.4 µM]
CCn1c(C)cc(C(=O)CN2C(=O)c3ccccc3S2(=O)=O)c1C | active: 0.398 µM | 
CCOc1ccc(NS(=O)(=O)c2ccc(C(=O)NNC(=O)c3ccccc3O)cc2)cc1 | inconclusive: 7.08 µM [inhibitor, partial curve] | 
Oc1c(C(Nc2cccc(C(F)(F)F)c2)c2cccnc2)ccc2cccnc12 (centres undefined) | inconclusive: 39.8 µM [inhibitor, single point] | 
CCCc1nc(C)cc(N2CCN(c3ccccc3)CC2)n1 | inconclusive: 22.4 µM [inhibitor, single point] | 
O=C(Nc1ccc(F)cc1)c1sccc1SCc1cccc(C(F)(F)F)c1 | inconclusive: 39.8 µM [inhibitor, single point] | 
Cc1ccc2c(c1)C1CN(C)CCC1N2C(=S)NC(=O)c1ccc(Br)cc1 (centres undefined) | inconclusive: 4.47 µM [inhibitor, partial curve, poor fit] | 
COc1ccc(C2CC(c3cccc(C(F)(F)F)c3)=NN2c2ccc(S(N)(=O)=O)cc2)cc1 (centres undefined) |  | inactive: -28.1% [at 11.4 µM]
CC(=O)Oc1ccccc1Cn1c(C)c(C(=O)NCc2ccc(Cl)c(Cl)c2)sc1=O | inconclusive: 25.1 µM [inhibitor, single point] | 
CCNc1ccc(Br)cc(C(=O)/C=C/c2ccccc2Cl)c1=O |  | inactive: -8.42% [at 11.4 µM]
CCn1c(-c2ccc(C)cc2)nn(CC(=O)NCCc2ccccc2)c1=S | inconclusive: 0.708 µM [inhibitor, full curve, poor fit] | 
CCn1c2ccccc2c2cc(NC(=O)COC(=O)Cc3cn4ccsc4n3)ccc21 |  | inactive: 33.4% [at 11.4 µM]
